Laboratory results as given in publication PMC4336329 (PLoS ONE, 2015).
About 14,000 (4.5%) of roughly 310,000 compounds showed an effect of 50% or more. Effects have a minus sign here. This is one part of the list.

Target: human ether-à-go-go-related gene (hERG) potassium channel (human, UniProt Q12809)
Assay: primary screen, population patch clamp on CHO cells stably expressing hERG
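Further: peak tail current of the secondary pulse compared with the same well before compound.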

human ether-à-go-go-related gene (hERG) potassium channel, sequence (Q12809 whole entry, looked up): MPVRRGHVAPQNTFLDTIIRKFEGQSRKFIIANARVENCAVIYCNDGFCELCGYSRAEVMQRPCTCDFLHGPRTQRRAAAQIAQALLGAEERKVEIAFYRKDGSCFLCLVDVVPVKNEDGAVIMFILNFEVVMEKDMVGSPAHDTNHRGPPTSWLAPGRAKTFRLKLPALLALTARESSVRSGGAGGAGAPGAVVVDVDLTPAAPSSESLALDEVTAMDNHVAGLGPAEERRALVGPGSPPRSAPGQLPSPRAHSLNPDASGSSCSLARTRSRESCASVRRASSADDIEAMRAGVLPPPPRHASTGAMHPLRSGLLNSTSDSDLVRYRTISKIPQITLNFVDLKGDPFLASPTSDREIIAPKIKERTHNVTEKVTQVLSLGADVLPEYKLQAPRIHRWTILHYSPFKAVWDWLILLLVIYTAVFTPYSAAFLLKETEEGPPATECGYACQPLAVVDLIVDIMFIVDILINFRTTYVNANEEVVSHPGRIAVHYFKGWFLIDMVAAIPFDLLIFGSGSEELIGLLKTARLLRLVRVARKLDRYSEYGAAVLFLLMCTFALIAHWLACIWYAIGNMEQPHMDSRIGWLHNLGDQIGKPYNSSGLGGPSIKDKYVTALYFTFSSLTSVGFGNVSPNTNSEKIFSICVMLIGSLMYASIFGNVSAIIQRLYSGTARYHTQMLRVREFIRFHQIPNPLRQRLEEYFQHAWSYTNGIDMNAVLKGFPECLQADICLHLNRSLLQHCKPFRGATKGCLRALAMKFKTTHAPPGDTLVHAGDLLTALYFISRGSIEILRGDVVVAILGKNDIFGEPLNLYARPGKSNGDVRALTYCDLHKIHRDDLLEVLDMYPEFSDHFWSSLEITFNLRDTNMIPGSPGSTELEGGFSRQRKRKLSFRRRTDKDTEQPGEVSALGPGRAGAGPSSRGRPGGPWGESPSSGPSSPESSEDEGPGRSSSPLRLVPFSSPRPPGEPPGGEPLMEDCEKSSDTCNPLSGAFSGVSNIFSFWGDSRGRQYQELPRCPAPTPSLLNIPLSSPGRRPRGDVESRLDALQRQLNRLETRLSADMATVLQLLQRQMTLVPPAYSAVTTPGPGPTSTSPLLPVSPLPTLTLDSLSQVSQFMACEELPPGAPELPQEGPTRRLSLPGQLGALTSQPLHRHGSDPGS

In order of rising “hERG current change (%, negative = inhibition) at 10uM” value:
1. CCOc1ccc(NC(=O)CN(C)C(=O)C2CCN(c3ncnc4sc(C)c(C)c34)CC2)cc1OCC  -58.2%
2. O=C(/C=C/c1cccc([N+](=O)[O-])c1)N1CCN(c2ccc(F)cc2)CC1  -56.7%
3. CCCN1CCN(C(=O)c2oc3c(Cl)cccc3c2C)CC1  -24.7%
4. CCOc1ccc(OCCC(=O)N2CCc3cc(OC)c(OC)cc3C2)cc1  -20.6%
5. O=C(CSc1nnc(-c2ccc(F)cc2)o1)N1CCCC1  -9.52%
6. Oc1ccccc1C1OCC2(CO1)COC(c1ccccc1O)OC2 (stereo not shown)  -8.32%
7. CN1CCN(NC(=O)c2ccc(Br)s2)CC1  -5.74%
8. Cc1ccc(-c2nn(-c3ccccc3)cc2C(=O)NCC(c2cccs2)N2CCOCC2)cc1 (stereo not shown)  -5.08%
9. Cc1ccc(OCC(=O)N2N=C(c3cccnc3)CC2(O)C(F)(F)F)cc1C (stereo not shown)  -4.25%
10. CC(=O)NC(Cc1ccc(C(C)C)cc1)C(=O)NC1CCN(c2nc(C)cc(C)n2)CC1 (stereo not shown)  -3.4%
11. COc1ccc(C2CC(c3cc(Br)ccc3F)n3nnnc3N2)cc1 (stereo not shown)  -2.78%
12. S=C(Nc1cccnc1)NC1CCCCCCC1  -1.63%
13. Br.CCCCC1CC(CSC(=N)N)OC1=O (stereo not shown)  -1.27%
14. CC1(C)C2CC=C(CN3CCOCC3)C1C2 (stereo not shown)  -1.04%
15. COC(=O)CC1C(=O)NCCN1C(=O)NC1CCCCC1 (stereo not shown)  -0.592%
16. Cc1ccc(CSc2ccc(C(=O)N3CCOCC3)cc2[N+](=O)[O-])cc1  -0.475%
17. C=CCN1C(=O)/C(=C2/Sc3ccc(OC)cc3N2C)SC1=Nc1ccccc1  -0.344%
18. CC1(c2ccccc2)NC(=O)N(CC(=O)Nc2nc(-c3ccccn3)cs2)C1=O (stereo not shown)  0.219%
19. Cc1ccc(C(=O)Nc2ncc(C)s2)o1  0.552%
20. CC(C)c1csc(CN2CCC(CCC(=O)NCC3CCCO3)CC2)n1 (stereo not shown)  0.656%
21. COc1cc(/C=N\NC(=O)c2sc(N)nc2C)cc(OC)c1OC  0.828%
22. COC(=O)c1sccc1Oc1ccc(F)cc1[N+](=O)[O-]  1.74%
23. Cc1c(C#N)c(NC(=O)c2ccccc2)n(Cc2ccccc2)c1C  2.21%
24. COc1cc(C(=O)Nc2ccc(C)c(S(=O)(=O)N(C)C)c2)ccc1OCC(=O)N1CCOCC1  2.66%
25. Cc1cc(C)cc(NC(=S)N2CCN(Cc3ccccc3)CC2)c1  4%
26. COc1ccc([N+](=O)[O-])cc1NC(=S)NC(NC(C)=O)C(Cl)(Cl)Cl (stereo not shown)  4.56%
27. CN(Cc1ccco1)c1ncnc2ccc(-c3ccc4c(c3)OCO4)cc12  5.54%
28. Cc1nc2cc(C(=O)OCC(=O)Nc3ccc(C#N)cc3)ccc2n1-c1ccccc1  6.46%
29. CCOc1ncccc1C(=O)NNC(=O)c1cccc(S(=O)(=O)Nc2ccc(OC)cc2)c1  6.87%
30. O=C(NC(=S)Nc1ccc(Cc2ccncc2)cc1)c1ccc(F)cc1  7.59%
31. CCCCn1c(N)c(N(CC)C(=O)C2=COCCO2)c(=O)[nH]c1=O  8.34%
32. Cc1cc(C)c(NC(=O)COC(=O)/C=C/c2cccs2)c(C)c1  8.38%
33. COc1cc(/C=C/c2nc3ccc([N+](=O)[O-])cc3s2)ccc1OCC(=O)O  9.41%
34. CC(C)(C)NC(=O)CSc1nc2[nH]ncc2c(=O)[nH]1  9.86%
35. COc1cc(OC)nc(Oc2ccc(NC(C)=O)cc2)n1  10.7%
36. O=C(Nc1ccccc1)Nc1ccc(Br)c(Cl)c1  11%
37. COc1ccc(CNc2nc(NCc3ccc(OC)c(OC)c3)n(C(=O)c3cccs3)n2)cc1OC  12.3%
38. CC(NC(=O)C1C2C=CC(C2)C1C(=O)O)c1ccccc1 (stereo not shown)  14.7%
39. COc1ccc(N=Cc2oc3ccc4ccccc4c3c2O)cc1  18.3%
40. COc1cc(NC(=O)CSc2ncnc3sc4c(c23)CCC(C)C4)c(C(=O)O)cc1OC (stereo not shown)  19.9%
41. FC(F)(F)c1cc(C(F)(F)F)n2nc(-c3sccc3-n3cccc3)cc2n1  20.9%
42. Cc1ccc(NC(=O)Nc2cnccn2)cc1C  22%
43. O=C(CN1C(=O)CSC1=O)Nc1ccccc1N1CCOCC1  22.1%
